Among all 340,000 compounds or so, about 12,000 (3.5%) were called active. The shares of active, inactive and inconclusive entries below differ from those in the screen. Calls follow the shape of the dose curve; as a rule, active = well fitted inhibition curve with a large enough effect; inconclusive = small, poorly fitted or top-dose-only effect, or another doubt; inactive = no such curve, though single readings can be large or run the other way. No potency is given beside an inconclusive call; the fits are too rough.
Assay: qHTS Assay for Inhibitors of Hepatitis C Virus (HCV)
Conditions: Huh7.5.1 HCVcc-Cre (HCVcc is cell-culture hepatitis C virus) infection, luciferase reporter, 44 h; series mostly up to 41.8 µM
Procedure, shortened: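 Luciferase read-out (15 sec integration) after a 15 min room-temperature substrate step quantifies HCVcc-Cre infection. Cells, 1,000 per well, had compound added 4 h post-plating, then virus at ~0.5 moi, and were cultured 44 h.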
Potency is read from the fitted curve at half-maximal effect; tags tell the direction and shape of the fitted curve.

| SMILES | Potency |
| --- | --- |
| CCC1=NN2C(=N)/C(=C/c3ccc(OS(=O)(=O)c4ccccc4)cc3)C(=O)N=C2S1 | inactive |
| O=C(O)c1cc(-c2ccc(Cl)c(Cl)c2)n(-c2ccccc2)n1 | inactive |
| COc1ccc(S(=O)(=O)N2CCOC2CNC(=O)C(=O)NCCc2ccccc2)cc1C (stereo not given) | inconclusive [inhibitor, single point] |
| Cn1cc([N+](=O)[O-])c(C(=O)Nc2ccc3c(C(F)(F)F)cc(=O)oc3c2)n1 | inconclusive [inhibitor, partial curve] |
| COc1cccc(CNc2ncc(C(=O)Nc3cc(OC)c(OC)c(OC)c3)c(C)n2)c1 | inconclusive [inhibitor, full curve] |
| CCOc1ccc(OCc2ccc(C(=O)N3N=C(C(F)F)CC3(O)C(F)F)o2)cc1 (stereo not given) | inactive |
| CCc1ccc(CNC(=O)CCn2ccc3cc(S(=O)(=O)N4CCCC4)ccc32)cc1 | inconclusive [inhibitor, partial curve, poor fit] |
| C=CCSc1cc(C)nc2c(-c3ccccc3)cnn12 | inconclusive [inhibitor, single point] |
| COC(=O)c1ccc(NC(=O)c2cccc(N3C(=O)C4C5C=CC(C6CC56)C4C3=O)c2)cc1 (stereo not given) | active: 5.01 µM |
| Cc1ccccc1NC(=O)c1ccc2c(c1)OCCO2 | inactive |
| Cc1cccc(NN=C2c3ccccc3-c3ccccc32)c1 | inconclusive [inhibitor, single point] |
| OCCC1CN(Cc2ccon2)CCN1Cc1ccc(F)c(F)c1 (stereo not given) | inactive |
| Cc1ccc(-n2nc3c(=O)n(CC(=O)NCCc4ccc(Cl)cc4)nc(C)c3c2C)cc1 | inconclusive [inhibitor, single point] |
| Cc1nc2c(sc3nc(N4CCOCC4)c4c(c32)CC(C)(C)OC4)c(-c2ccccc2)c1C(=O)O | inconclusive [inhibitor, single point] |
| Cc1nc(-c2ccc(F)cc2)c(CC(=O)N2CCN(S(=O)(=O)c3cccc([N+](=O)[O-])c3)CC2)s1 | inconclusive [inhibitor, full curve, poor fit] |
| CCOc1ccccc1NC(=O)C(OC(=O)c1ccc(CC)cc1)c1ccccc1 (stereo not given) | inactive |
| CCOc1ccc2oc(=O)cc(CN3CCN(Cc4ccccc4)CC3)c2c1 | inconclusive [inhibitor, partial curve] |
| O=C(CCn1c(=S)oc2ccccc21)Nc1ccc(F)cc1 | inactive |
| Cc1ccc(CN(C)C(=O)c2ccc(S(=O)(=O)N3CCCCCC3)cc2)o1 | inactive |
| Cc1ccsc1CN1CCN(c2ccccn2)CC1 | inactive |
| CC1=C(C(=O)OCc2ccccc2)C(c2ccc(Cl)cc2)NC(=O)N1C (stereo not given) | inconclusive [inhibitor, single point] |
| Cc1nc2ccc(NC(=S)NC3CC3)cc2nc1C | inactive |
| O=C(c1nc2ccc(Cl)cn2c1CNCC[C@@H]1C[C@@H]2C=C[C@H]1C2)N1CCCCCCC1 | inactive |
| Cc1nc(N)sc1-c1csc(N(C)c2ccc(O)cc2)n1 | inconclusive [inhibitor, partial curve] |

| SMILES | Potency |
| --- | --- |
| O=C(c1ccc2c(c1)OCO2)N(c1ccc(F)cc1)C1C=CS(=O)(=O)C1 (stereo not given) | inactive |
| COc1ccc2c(c1)c(CC(=O)NCc1cc([N+](=O)[O-])ccc1O)c(C)n2C(=O)c1ccc(Cl)cc1 | inconclusive [inhibitor, partial curve] |
| CN(C)c1ccc(P(=O)(OCc2ccccc2)C(O)c2ccccc2F)cc1 (stereo not given) | inactive |
| Cc1cc(Nc2cccc(F)c2)nc(NCc2ccccc2)n1 | inconclusive [inhibitor, partial curve] |
| CCN(CC)S(=O)(=O)c1ccc(/C=C/C(=O)OCC(=O)NCc2ccc3c(c2)OCO3)cc1 | inconclusive [inhibitor, single point] |
| CCc1ccccc1NC(=O)c1nnn(CC(=O)Nc2cccc(C)c2C)c1N | inconclusive [inhibitor, single point] |
| O=C1c2ccccc2C(=O)c2c(NCCCN(CCO)CCO)cccc21 | active: 14.1 µM |
| O=C(N[C@@H]1C/C=C\C[C@@H](CC(=O)N(CCO)Cc2ccccc2)C(=O)NCCOC1=O)OCC1c2ccccc2-c2ccccc21 | inactive |
| COCCCNC(=O)CNC(=S)N(Cc1ccccc1F)C1CCCCC1 | inconclusive [inhibitor, single point] |
| C/C=C/c1ccc(OCCSc2nc(C)cc(=O)[nH]2)c(OC)c1 | inactive |
| CCOC(=O)c1sc(NNC(=O)c2ccc(F)cc2)nc1C | inconclusive [inhibitor, single point] |
| Cc1cccc(CC(C)NC(=O)c2cc(COc3ccc(C)c(C)c3)on2)n1 (stereo not given) | inconclusive [inhibitor, single point] |
| CCOC(=O)Cn1c(N2CCCCCC2)nc2c1c(=O)[nH]c(=O)n2C | inactive |
| CCOC(=O)c1c(NC(C)=O)sc2c(OC)cccc12 | inconclusive [inhibitor, partial curve] |
| CCN1C(=O)/C(=C/c2cc(C)n(C)c2C)SC1=Nc1ccc(OC)cc1 | inconclusive [inhibitor, partial curve] |
| CC(C)NC(=O)C(C)Oc1ccc(S(=O)(=O)NCc2ccc3c(c2)OCO3)cc1 (stereo not given) | inactive |
| COCCN(C(=O)Nc1ccc(OC)cc1OC)C1CCN(C(C)C)CC1 | inconclusive [inhibitor, single point] |
| CN(C)c1nc(N/N=C/c2ccccc2O)nc(Nc2ccc(F)cc2)n1 | inconclusive [inhibitor, single point] |
| COc1ccc(CNC(=O)C(C)n2nc(C)c3c(C)n(-c4ccc(C)cc4)nc3c2=O)cc1 (stereo not given) | inconclusive [inhibitor, single point] |
| Cn1c(Cl)c(C(=O)Nc2ccc(Cl)cc2)c2ccccc21 | inconclusive [inhibitor, single point] |
| O=C(Nc1ccccc1N1CCCC1)c1ccc(N2CCCC2=O)cc1 | inconclusive [inhibitor, partial curve] |
| Cc1cccc(N2C(=O)NC(=O)/C(=C\c3cnc(-c4ccccc4)nc3)C2=O)c1 | active: 11.2 µM |
| CCCc1cc(C(N)=O)c(NC(C)=O)s1 | inconclusive [inhibitor, partial curve] |
| Cn1c(C(=O)N2CCN(c3ccc(Cl)cc3)CC2)cc2c(=O)[nH]c3ccccc3c21 | inconclusive [inhibitor, partial curve, poor fit] |

| SMILES | Potency |
| --- | --- |
| Cc1nc(N)nc(Nc2ccc(C#N)cc2)c1Br | inconclusive [inhibitor, single point] |
| O=C(COC(=O)c1ccc(-n2cnnn2)cc1)c1ccc(Br)cc1 | inconclusive [inhibitor, single point] |
| S=C(Nc1cccc(Cl)c1)Nc1ccccc1Oc1ccccc1 | inconclusive [inhibitor, single point] |
| Cc1nn(C)cc1NC(=O)c1ccc(Br)o1 | inactive |
| CCOC(=O)C(=CNc1ccc(N2CCCCC2)c(S(=O)(=O)Nc2ccccc2OC)c1)C(=O)OCC | inconclusive [inhibitor, single point] |
| Fc1ccccc1NC(=S)N1CCN(Cc2ccccc2)CC1 | inactive |
| Cc1nc(-c2ccc(C(=O)Nc3cccc(F)c3)cc2)cs1 | active: 3.55 µM |
| CC[C@H](C)[C@@H](CN[C@H](CCCCNC)CNC)NCC1CCCC1 | inactive |
| CC(=O)c1cccc(OCC(O)CNCC2COc3ccccc3O2)c1 (stereo not given) | inactive |
| Cc1ccc(NC(=O)CN2C(=O)NC(C)(C3CC3)C2=O)cc1S(=O)(=O)N1CCCCC1 (stereo not given) | inconclusive [inhibitor, partial curve] |
| COc1ccc2oc(=O)c(C(=O)Nc3cccc(C)c3)cc2c1 | inconclusive [inhibitor, single point] |
| O=C(NCc1ccco1)c1cc(-c2ccccc2)c(N2CCOCC2)s1 | active: 8.91 µM |
| CCOc1ccc(S(=O)(=O)N2CCN(C(=O)CCC(=O)N3CCOCC3)CC2)cc1 | inconclusive [inhibitor, single point] |
| O=C(Nc1ncccc1O)c1ccc(OCC2CCCO2)cc1 (stereo not given) | inactive |
| O=C(Nc1cccc(-c2csc(Nc3cccc(C(F)(F)F)c3)n2)c1)c1ccccc1 | inconclusive [inhibitor, partial curve] |
| CCN(C(=O)CSc1nnc(-c2ccccc2Cl)n1N)c1c(N)n(Cc2ccccc2)c(=O)[nH]c1=O | inactive |
| O=C(NCCCN1CCOCC1)c1cc(-c2ccccc2)on1 | inconclusive [inhibitor, partial curve] |
| O=C(Nc1ccc(Cn2cccn2)cc1)c1ccc(COc2cccc(Br)c2)cc1 | active: 10 µM |
| CCN1C(=O)c2cccc3c(NS(=O)(=O)c4ccc(NC(C)=O)cc4)ccc1c23 | inconclusive [inhibitor, partial curve] |
| CC(OC(=O)c1ccc([N+](=O)[O-])o1)C(=O)Nc1nc(-c2ccc(F)c(F)c2)cs1 (stereo not given) | inconclusive [inhibitor, full curve, poor fit] |
| Cc1cc(C)cc(N(CC(=O)NCc2ccc3c(c2)OCO3)C(=O)CCC(=O)Nc2ccccn2)c1 | inactive |
| C=CCN1C(=O)C(CC(=O)Nc2ccccc2F)S/C1=N\c1nccs1 (stereo not given) | inconclusive [inhibitor, partial curve, poor fit] |

From PubChem BioAssay AID651820 (National Center for Advancing Translational Sciences (NCATS), 2012)
